# The whole screen tested about 310,000 compounds, of which about 14,000 (4.5%) showed an effect of 50% or more. Effects have a minus sign here. The list shows a part of the results.
# Target: human ether-à-go-go-related gene (hERG) potassium channel (human, UniProt Q12809)
# Test: primary screen, population patch clamp on CHO cells stably expressing hERG
# 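Further: peak tail current of the secondary pulse compared with the same well before compound.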
# human ether-à-go-go-related gene (hERG) potassium channel, sequence (Q12809 whole entry, looked up): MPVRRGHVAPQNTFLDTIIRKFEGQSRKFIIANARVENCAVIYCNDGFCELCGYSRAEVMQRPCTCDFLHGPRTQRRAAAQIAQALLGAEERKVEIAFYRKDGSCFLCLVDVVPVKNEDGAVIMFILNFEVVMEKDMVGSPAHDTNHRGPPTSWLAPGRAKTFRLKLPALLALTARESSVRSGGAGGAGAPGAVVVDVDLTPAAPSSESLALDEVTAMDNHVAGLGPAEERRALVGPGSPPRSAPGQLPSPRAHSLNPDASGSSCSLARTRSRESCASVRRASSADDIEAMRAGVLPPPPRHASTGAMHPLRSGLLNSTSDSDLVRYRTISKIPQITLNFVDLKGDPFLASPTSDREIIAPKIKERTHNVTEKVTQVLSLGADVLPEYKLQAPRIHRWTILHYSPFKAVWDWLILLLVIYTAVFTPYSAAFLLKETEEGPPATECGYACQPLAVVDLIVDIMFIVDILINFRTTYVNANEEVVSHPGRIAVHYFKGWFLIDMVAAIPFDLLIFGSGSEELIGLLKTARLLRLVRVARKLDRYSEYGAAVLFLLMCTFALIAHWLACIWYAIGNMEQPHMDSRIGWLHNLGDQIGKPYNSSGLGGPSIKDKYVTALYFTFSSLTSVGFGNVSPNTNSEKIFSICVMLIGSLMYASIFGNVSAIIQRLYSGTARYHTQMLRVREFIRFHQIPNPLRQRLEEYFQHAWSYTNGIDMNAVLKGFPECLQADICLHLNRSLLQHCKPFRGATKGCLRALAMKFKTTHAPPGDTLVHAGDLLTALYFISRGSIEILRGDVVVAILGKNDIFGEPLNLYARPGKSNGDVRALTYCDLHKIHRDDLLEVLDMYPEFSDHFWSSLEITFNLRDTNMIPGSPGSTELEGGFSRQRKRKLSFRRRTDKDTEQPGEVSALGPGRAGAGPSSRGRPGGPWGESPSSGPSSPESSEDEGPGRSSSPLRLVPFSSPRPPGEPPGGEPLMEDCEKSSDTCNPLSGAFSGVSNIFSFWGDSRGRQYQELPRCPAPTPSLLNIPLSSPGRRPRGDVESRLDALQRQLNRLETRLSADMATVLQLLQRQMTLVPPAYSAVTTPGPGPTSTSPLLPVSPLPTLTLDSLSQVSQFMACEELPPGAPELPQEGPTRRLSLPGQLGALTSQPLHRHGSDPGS
row,SMILES,"hERG current change (%, negative = inhibition) at 10uM"
1,Cn1c(N2CCN(C(=O)Nc3ccc(C(F)(F)F)cc3)CC2)nc2ccccc21,-41.3%
2,N#CC(C(=S)Nc1ccccc1)c1nc2ccccc2[nH]1 (centres unmarked),11.2%
3,N/C(=N\c1nc2ccccc2o1)NC(=O)C(Cc1ccccc1)N1C(=O)c2ccccc2C1=O (centres unmarked),15.8%
4,Cc1ccc(/C=C/C(=O)N2CCN(S(=O)(=O)/C=C/c3ccccc3)CC2)o1,-8.63%
5,Cc1onc(-c2ccccc2)c1C(=O)Nc1nc2c(s1)C(=O)CC(C)(C)C2,2.83%
6,O=C(N/N=C\c1ccc2c(c1)OCO2)c1ccc(Cn2cc(Br)c([N+](=O)[O-])n2)o1,-8.65%
7,CCOc1ccc2nc(SCC(=O)NCC3CCCO3)c(C#N)cc2c1 (centres unmarked),-11.2%
8,Cc1c(C(=O)Nc2ccc(F)cc2)oc2ccc(S(=O)(=O)N3CC(C)CC(C)C3)cc12 (centres unmarked),16.3%
9,CCc1ccc(NC(=O)COc2ccc(/C=C(/C#N)c3nc4ccccc4[nH]3)cc2OC)cc1,5.07%
10,Cc1ccc(-n2nnnc2SC(C)C(=O)NCC(=O)Nc2ccc(F)c(F)c2F)c(C)c1 (centres unmarked),-14.7%
11,O=C(CN(Cc1ccc2c(c1)OCO2)C(=O)c1cnsn1)NC1CCCC1,6.24%
12,CC(C)=N/N=C1/NC(=O)C(Cc2ccccc2)S1 (centres unmarked),23.7%
13,CCOc1cc(CN2CCCC(CO)(Cc3ccc(F)cc3F)C2)ccc1OC (centres unmarked),-55.9%
14,O=C(Nc1ccccc1C(=O)N1CCN(c2ccccc2)CC1)c1ccco1,-4.05%
15,CCOC(=O)c1c(CN(C)C)n(-c2ccc(C)cc2)c2cc(Br)c(O)cc12,-35.8%
16,CSc1ccccc1C(=O)Nc1ncn[nH]1,19.3%
17,CCCCNC(=O)C1c2ccccc2Oc2ccccc21,18.3%
18,Cc1ccc(CSCCC(=O)NCCC2=CCCCC2)cc1,1.38%
19,COc1ccc2c(c1OC)C(=O)OC2Nc1ncc(Br)cc1Br (centres unmarked),7.16%
20,O=C(COc1ccccc1)Nc1cccc2nsnc12,-27.4%
21,COc1ccc(NC(=O)Cn2nnc(C(=O)NCc3ccc4c(c3)OCO4)c2N)c(OC)c1,18.1%
22,COc1ccc(OCCCC(=O)Nc2ncn[nH]2)cc1,13%
23,Cc1ccc(SCC(=O)NC(C)(C)C)cc1,-8.22%

row,SMILES,"hERG current change (%, negative = inhibition) at 10uM"
1,COc1ccc(CCN2CC34C=CC(O3)C(C(=O)NCc3ccccc3Cl)C4C2=O)cc1OC (centres unmarked),0.83%
2,C=CCn1c(SCC(=O)NCCc2ccccc2)nnc1C1CC1,-11.9%
3,COCCCN(C(=S)Nc1cc(Cl)cc(Cl)c1)C(C)c1ccccn1 (centres unmarked),-38.8%
4,Cc1cc(OC(C)C(=O)NCC2CCCO2)cc(C)c1Cl (centres unmarked),8.45%
5,Cc1cnn(C(=S)NCC2CCCO2)c1 (centres unmarked),5.26%
6,S=C(c1ccc(-c2ccc(Cl)cc2)o1)N1CCCCC1,10.1%
7,Cc1cc(C(C#N)c2cccc(Cl)c2)n2ncnc2n1 (centres unmarked),-0.31%
8,CNC(=O)COc1ccc(Nc2nnc(-c3ccc(C)c(S(N)(=O)=O)c3)c3ccccc23)cc1,15.4%
9,CC(=O)N1CCN(c2ccc(NC(=S)NC(=O)/C=C/c3ccccc3)cc2)CC1,10.1%
10,CN1/C(=C\C=C2C(=O)NC(=O)NC2=O)C(C)(C)c2ccccc21,30.9%
11,C=CCn1c(-c2cccnc2)n[nH]c1=S,24.2%
12,Cc1nc(C)c(-c2ccc(SCc3ccccc3C)nn2)s1,7.77%
13,C=CCOc1ccc(/C=C/C(=O)OCC(=O)NCCc2ccccc2)cc1,8.61%
14,O=C(NCc1ccccc1F)C(=O)NCC1CCCN1S(=O)(=O)c1ccccc1 (centres unmarked),-18.8%
15,CN(CC(=O)NC1CC(C)(C)NC(C)(C)C1)S(=O)(=O)c1cc(Cl)ccc1Cl,-21.1%
16,CCCNC(=O)C1CC(=O)N(c2ccc(OCC(=O)Nc3cccc(C)c3C)cc2)C1 (centres unmarked),3.29%
17,CC(=O)Nc1cc(C(=O)N2CCN(C)CC2)ccc1S(=O)(=O)c1ccc(C)cc1,-0.915%
18,C=CCn1c(SCc2cccc(C#N)c2)nnc1-c1ccccc1O,-30.4%
19,CC(C)Oc1ccc(CNC(=O)c2ccc3nc(N4CCOCC4)sc3c2)cc1,11.3%
20,Cc1cc(/C(N)=N/OC(=O)Nc2ccc(Cl)cc2)no1,-3.15%
21,CC1CN(CC(O)COCc2ccc3c(c2)OCO3)CC(C)O1.Cl (centres unmarked),-12.2%
22,CCCC/C([O-])=N\S(=O)(=O)c1ccc(N=NN(C)C)cc1.[K+],1.26%
23,CC(CN1CCCCC1)C(=O)NN (centres unmarked),43.3%

row,SMILES,"hERG current change (%, negative = inhibition) at 10uM"
1,CCOCN(C(=O)Cn1c(CO)nc2ccccc21)c1c(C)cccc1CC,0.0819%
2,CCOC(=O)/C(C#N)=C(/C)c1ccc(OC)cc1,4.78%
3,CC(=O)NNC(=O)c1ccncc1,6.06%
4,COc1ccc(OCC(=O)Nc2nnc(-c3ccco3)s2)cc1,17.7%
5,Cn1ncc(Br)c1C(=O)Nc1ccc(Br)cn1,16.6%
6,Cc1ccccc1N1C(=O)CC(N2CCC(C(N)=O)CC2)C1=O (centres unmarked),0.665%
7,COc1ccc(OC)c(S(=O)(=O)Nc2ccc3oc4c(c3c2)C(=O)CCC4)c1,-9.85%
8,Cc1ccc(C(=O)CSc2nsc(C)c2C#N)cc1,9.47%
9,O=C(CNCc1ccccc1)Nc1ccc(Oc2ccccc2)cc1,-18.7%
10,O=C(O)c1ccc(-c2nc3scc(-c4ccccc4)c3c(=O)[nH]2)cc1,1.8%
11,Cc1cc(C)cc(NC(=O)CSc2nc(=O)n(CCCN3CCOCC3)c3c2CCCC3)c1,-55.2%
12,Cc1cc(C)cc(C(=O)NC(=S)Nc2ccc(Cc3ccncc3)cc2)c1,11.5%
13,CCOCCCNC(=O)c1ccc(Cn2c(=S)[nH]c3c([nH]c4ccc(OC)cc43)c2=O)cc1,18.9%
14,CCOc1cc2[nH]c(=S)n(Cc3ccc(C(=O)NCCCN(CC)CC)cc3)c(=O)c2cc1OCC,3.49%
15,CC(Sc1nnc(-c2ccccc2F)n1C1CC1)C(=O)NCc1ccco1 (centres unmarked),-35%
16,CCOC(=O)C1CCN(/C=C2/C(=O)NC(=O)N(c3cccc(C)c3C)C2=O)CC1,7.79%
17,CC(=O)c1cc(CN2CCC(n3nccc3NC(=O)c3ccccc3Cl)CC2)cs1,-56.5%
18,COc1ccc2nc(-c3ccccc3)cc(C(=O)OCC(=O)N3CCCCC3)c2c1,0.331%
19,Cn1nnnc1SCC(=O)NCc1ccco1,-8.74%
20,COc1cc2c(cc1NC(=S)Nc1cccc(C)c1)oc1ccccc12,13.2%
21,COc1ccc(Cl)cc1NC(=O)CNCC(c1ccccc1)N(C)C.O=C(O)C(=O)O (centres unmarked),-73.9%
22,CCCNC(=O)C1Cc2cc(S(=O)(=O)N3CCCC3)ccc2N1C(C)=O (centres unmarked),18.4%
23,COc1ccc(S(=O)(=O)Nc2cc(C)on2)cc1NC(C)=O,14%

row,SMILES,"hERG current change (%, negative = inhibition) at 10uM"
1,CC1(C)CC(=O)C2=C(C1)OC(N)=C(C#N)C2c1ccoc1 (centres unmarked),5.85%
2,CC1CCN(CC(=O)Nc2ccc(Cl)cc2[N+](=O)[O-])CC1,7.18%
3,CN(Cc1nc2ccc(F)cc2[nH]1)C(=O)C1CCC(=O)N(C2CC2)C1 (centres unmarked),2.02%
4,Nc1ccc2c(c1)C/C(=C/c1ccco1)C2=O,6.77%
5,COc1ccc(S(=O)(=O)NCc2cccnc2)cc1C(=O)Nc1ccccc1,-47.9%
6,COC(=O)c1ccc2nc(Nc3nc4c(F)cc(F)cc4s3)sc2c1,0.987%
7,CC(OC(=O)CCCN=C1NS(=O)(=O)c2ccccc21)C(=O)Nc1ccc(F)cc1Cl (centres unmarked),-15.3%
8,CC1(OC(=O)c2ccco2)C(=O)C=C2C=C(c3ccc(C#N)cc3)OC=C2C1=O (centres unmarked),-1.03%
9,CCCC(c1nnnn1CCc1ccccc1)N1CCN(C(=O)c2ccco2)CC1 (centres unmarked),-49.3%
10,O=C(CSc1nnc(CSc2nc3ccccc3s2)o1)NC1CCCCC1,6.46%
11,O=C(Nc1ccc2c(c1)Cc1ccccc1-2)c1ccccc1F,17.6%
12,CCc1nonc1NC(=O)c1oc2ccccc2c1C,14.3%
13,Cc1nnc(SCC(=O)Nc2nccs2)s1,20.4%
14,CC(C)CSc1ncnc2c1oc1nc3c(cc12)COC(C)(C)C3,2.55%
15,Cc1ccc(-c2noc(C3CCCN(C(=O)c4ccc(Cl)cc4)C3)n2)o1 (centres unmarked),-55.2%
16,COc1ccc(OC)c(N=Cc2c(O)c3ccccc3oc2=O)c1,12.9%
17,Cc1ccc(NC(=O)CN2C(=O)NC(C)(CCc3ccccc3)C2=O)cc1 (centres unmarked),-15.6%
18,COc1ccccc1N1CN(Cc2ccccc2)CNC1=S,-3.29%
19,O=S(=O)(c1ccc(Cl)cc1)N1c2ccccc2Oc2nc3ccccc3nc21,15.9%
20,CSc1cccc(NC(=O)CCCOc2ccccc2)c1,10.6%
